Experimental data taken from the supplement of paper PMC11417369.
± gives the standard deviation of the averaged measurements. The list shows a part of the results.

Each sequence was assayed on PfAP2-EXP AP2 domain (GST-tagged) (assay: gcPBM binding intensity (ln(normalized median fluorescence intensity)); higher = stronger DNA binding).
Procedure, shortened: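 In this array assay, P. falciparum DNA-binding domains with a GST tag, expressed in E. coli, were applied for 1 h to primer-extended double-stranded 36-bp intergenic genomic probes and negative controls on an Agilent 4 × 180k array. Bound protein was visualised with Alexa488 anti-GST antibody at 488 nm. Binding intensity is the highest Masliner-normalised natural-log median intensity across replicate spots of either probe orientation.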
For “CCTTTATATTATAAAAGTACATAATATTTTATAAGT [XGTACX_site1629]”, the “gcPBM binding intensity (ln)” value was 8.3 ± 0.16.
In the case of “TAAATATATATCATCACACACACATACATAAATATA [CACACA_site183]”, the “gcPBM binding intensity (ln)” value is reported as 8.74 ± 0.52.
With “AGCTCTATATTTTACACATGCGATTTGGATATATAT [TGCATGCA_site105]” the “gcPBM binding intensity (ln)” value was 8.8 ± 0.31.
“ATATTACAACGTAACGAATATTTCATAAATTCTTAA [CACACA_negctrl_site770]” was tested, and the “gcPBM binding intensity (ln)” value was 8.1 ± 0.32.
In the case of “TTATATAGATGGAATAGTACAGTATATATATATATA [XGTACX_site8755]”, the “gcPBM binding intensity (ln)” value is reported as 10 ± 0.11.
For “ATTTCTCAATCGTAATGTACAAAAAAAAGGAAAAAA [XGTACX_site1193]”, the “gcPBM binding intensity (ln)” value was 8.57 ± 0.57.
In the case of “ATATTATTAATATATTGTACTTTTTTTTTTTTATTT [XGTACX_site496]”, the “gcPBM binding intensity (ln)” value is reported as 8.49 ± 0.38.
For “ATATGTATTTAATTCACACAAAAATATGTTCATGAA [CACACA_site5223]”, the “gcPBM binding intensity (ln)” value was 8.29 ± 0.4.
In the case of “CACATTATGTATCATACACACAAATAAATATATAAT [CACACA_site4505]”, the “gcPBM binding intensity (ln)” value is reported as 8.62 ± 0.37.
With “TATAAAAATAATATTACACACATGTAAAATGCCCGT [CACACA_site7522]” the “gcPBM binding intensity (ln)” value was 8.49 ± 0.31.
For “TTTTTTTTGTATTTTTCACACACTCTCTATCTCTCT [CACACA_site8655]”, the “gcPBM binding intensity (ln)” value was 8.94 ± 0.45.
For TGAAAATAATTATAGGTGCATAAACATACGGATCTT, the “gcPBM binding intensity (ln)” value was 9.07 ± 0.099.
For “ATATATTAATAATAAATTAAAAGGAGTAACATTTTC [CACACA_negctrl_site320]”, the “gcPBM binding intensity (ln)” value was 8.46 ± 0.38.
In the case of “ATATTTTATTTTCCATGTACACAAAAAAAAAAAAAA [XGTACX_site8327]”, the “gcPBM binding intensity (ln)” value is reported as 8.48 ± 0.4.
In the case of “AATTTAATTATGGTAACACACAATAAAAAAAAATCT [CACACA_site568]”, the “gcPBM binding intensity (ln)” value is reported as 8.46 ± 0.36.
“TTTTTTTTTTTCTTTGCACACAGATAACTTGAAATT [CACACA_site2184]” was tested, and the “gcPBM binding intensity (ln)” value was 8.58 ± 0.44.
In the case of “AGGTTAAAAATAAATACACACATTTTATGGGTGTAT [CACACA_site4702]”, the “gcPBM binding intensity (ln)” value is reported as 8.06 ± 0.28.
In the case of “AAGAAAATAAAGGATATGAAAAATAAAAAAAAGGAG [TGCATGCA_negctrl_site265]”, the “gcPBM binding intensity (ln)” value is reported as 9.21 ± 0.28.
For “ATATATTATATGTACACACACATATAAGGGATTATA [CACACA_site5]”, the “gcPBM binding intensity (ln)” value was 8.61 ± 0.085.
In the case of “TATAAATATATATATACACACACATACACAAAAAAA [CACACA_site9191]”, the “gcPBM binding intensity (ln)” value is reported as 8.96 ± 0.54.
For “AAAAATATGAAGACACAATATAGAAATAAAAATATA [XGTACX_negctrl_site244]”, the “gcPBM binding intensity (ln)” value was 8.68 ± 0.44.
With “TATTACTTGATATATACACACATATAACATAAATGC [CACACA_site7783]” the “gcPBM binding intensity (ln)” value was 8.37 ± 0.49.
For “ATACCTAAAAAATATACACACATATTTATAAATATA [CACACA_site7260]”, the “gcPBM binding intensity (ln)” value was 8.4 ± 0.4.
“TAGAATAAACCAAGAAGTACTGTTTAATGAAAAGTA [XGTACX_site5712]” was tested, and the “gcPBM binding intensity (ln)” value was 8.62 ± 0.47.
For “TAAACAGACATATAAACACACATATAAACCGACATA [CACACA_site2478]”, the “gcPBM binding intensity (ln)” value was 8.69 ± 0.57.
For “TATATTTATATTCTTACATTTTTTATGTTTTTTTTT [CACACA_negctrl_site1017]”, the “gcPBM binding intensity (ln)” value was 8.39 ± 0.3.
In the case of “AAAATAACATAAAAGAGTACTAAACCAAGATCAAAT [XGTACX_site7973]”, the “gcPBM binding intensity (ln)” value is reported as 8.97 ± 0.59.
“GTCATATTATTCTTTTCACACACGCGTTAATAATAA [CACACA_site9302]” was tested, and the “gcPBM binding intensity (ln)” value was 9.41 ± 0.47.
For “TATTATAATATGTAGCGTACATTTTTTCTTTCTTTT [XGTACX_site7831]”, the “gcPBM binding intensity (ln)” value was 8.94 ± 0.12.
With “AAGGTTATATAAAAAAGTACGCATAAGATGTTGTTC [XGTACX_site807]” the “gcPBM binding intensity (ln)” value was 8.73 ± 0.3.
With “TACTGTATTATAATTATGATTGACGAAATTAAAAAT [GTGCAC_negctrl_site358]” the “gcPBM binding intensity (ln)” value was 8.44 ± 0.32.
For “TGAAATTTATAATAGTGTACAAAGAAAAAAAAAAAA [XGTACX_site4965]”, the “gcPBM binding intensity (ln)” value was 8.61 ± 0.52.
With “ATTAGAAAAAAGATAGCACACACGGCCCAATATATA [CACACA_site2417]” the “gcPBM binding intensity (ln)” value was 8.73 ± 0.54.
“TTTATGGATGTGTATGCATGCCTAAATAAATATATG [TGCATGCA_site916]” was tested, and the “gcPBM binding intensity (ln)” value was 9.01 ± 0.48.
“TCTCAAAAAAAAAAAAAAAAAAAAAAATTAAAAAAT [CACACA_negctrl_site1120]” was tested, and the “gcPBM binding intensity (ln)” value was 7.92 ± 0.68.
For “TAAATAATGTAAAAAACATCATCAAAATGTTAATTA [CACACA_negctrl_site1768]”, the “gcPBM binding intensity (ln)” value was 7.99 ± 0.4.
For “ACGACATATGGATGATGTACTATCTTTATTATACAT [XGTACX_site6857]”, the “gcPBM binding intensity (ln)” value was 8.61 ± 0.4.
With “ATAAAGGTTTTCCAAGCATGCCACATAGTGACATAC [TGCATGCA_site193]” the “gcPBM binding intensity (ln)” value was 8.39 ± 0.34.
In the case of “CAATATAAAATAAAATGTACTTGTAGTAAAGGGATA [XGTACX_site1452]”, the “gcPBM binding intensity (ln)” value is reported as 8.79 ± 0.35.
With “GATGAGGACAAACACACACACATAAGTTGATACATA [CACACA_site3424]” the “gcPBM binding intensity (ln)” value was 8.69 ± 0.4.
With “AGATAGATACATACACGTACATATATATATACACAT [XGTACX_site4755]” the “gcPBM binding intensity (ln)” value was 8.68 ± 0.33.
“TTAGATAGATTTGTACGTACTTATTATAACGTATCA [XGTACX_site5067]” was tested, and the “gcPBM binding intensity (ln)” value was 8.53 ± 0.13.
In the case of “AATTTATAAATAATTAATTTGATAAATTATAAAGGG [GTGCAC_negctrl_site544]”, the “gcPBM binding intensity (ln)” value is reported as 8.57 ± 0.37.
With “ACATATTTATATGTCTGTACAAATATGCAATTTTTT [XGTACX_site5516]” the “gcPBM binding intensity (ln)” value was 8.27 ± 0.31.
